# According to the supplement of paper PMC8728848:
# The other results are listed elsewhere or left out.
# B1: Gal 2 (Homo sapiens), P05162 (protein)
# chain: MTGELEVKNMDMKPGSTLKITGSIADGTDGFVINLGQGTDKLNLHFNPRFSESTIVCNSLDGSNWGQEQREDHLCFSPGSEVKFTVTFESDKFKVKLPDGHELTFPNRLGHSHLSYLSVRGGFNMSSFKLKE
# Experiments:
# Experiment in all cases: glycan array binding signal (z-score within array); higher = stronger binding
# Details in all cases: glycan notation: IUPAC condensed, linker removed
# [1] = biological target: Gal(b1-4)GlcNAc(b1-3)Gal(b1-3)GalNAc
# In short: (§1)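 From the Consortium for Functional Glycomics database, 3228 arrays were curated, keeping only those whose protein sequence was available. Binding is given as a within-array Z-score averaged across arrays sharing a protein sequence and across linkers. Negative Z-scores can be read as non-binding.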
# [2] = biological target: Gal(b1-4)GlcNAc(b1-3)Gal(b1-3)GlcNAc
# In short: as §1
# [3] = biological target: Gal(b1-4)GlcNAc(b1-3)Gal(b1-4)Glc
# In short: as §1
# [4] = biological target: Gal(b1-4)GlcNAc(b1-3)Gal(b1-4)GlcNAc
# In short: as §1
# [5] = biological target: Gal(b1-4)GlcNAc(b1-3)Gal(b1-4)GlcNAc(b1-2)Man(a1-3)[Gal(b1-4)GlcNAc(b1-3)Gal(b1-4)GlcNAc(b1-2)Man(a1-6)]Man(b1-4)GlcNAc(b1-4)GlcNAc
# In short: as §1
# [6] = biological target: Gal(b1-4)GlcNAc(b1-3)Gal(b1-4)GlcNAc(b1-2)Man(a1-3)[Gal(b1-4)GlcNAc(b1-3)Gal(b1-4)GlcNAc(b1-2)Man(a1-6)]Man(b1-4)GlcNAc(b1-4)[Fuc(a1-6)]GlcNAc
# In short: as §1
# [7] = biological target: Gal(b1-4)GlcNAc(b1-3)Gal(b1-4)GlcNAc(b1-2)[Gal(b1-4)GlcNAc(b1-3)Gal(b1-4)GlcNAc(b1-6)]Man(a1-6)[Gal(b1-4)GlcNAc(b1-3)Gal(b1-4)GlcNAc(b1-2)Man(a1-3)]Man(b1-4)GlcNAc(b1-4)GlcNAc
# In short: as §1
# [8] = biological target: Gal(b1-4)GlcNAc(b1-3)Gal(b1-4)GlcNAc(b1-2)[Gal(b1-4)GlcNAc(b1-3)Gal(b1-4)GlcNAc(b1-6)]Man(a1-6)[Gal(b1-4)GlcNAc(b1-3)Gal(b1-4)GlcNAc(b1-2)Man(a1-3)]Man(b1-4)GlcNAc(b1-4)[Fuc(a1-6)]GlcNAc
# In short: as §1
# [9] = biological target: Gal(b1-4)GlcNAc(b1-3)Gal(b1-4)GlcNAc(b1-3)Gal(b1-4)GlcNAc
# In short: as §1
# [10] = biological target: Gal(b1-4)GlcNAc(b1-3)Gal(b1-4)GlcNAc(b1-3)Gal(b1-4)GlcNAc(b1-2)Man(a1-3)[Gal(b1-4)GlcNAc(b1-3)Gal(b1-4)GlcNAc(b1-3)Gal(b1-4)GlcNAc(b1-2)Man(a1-6)]Man(b1-4)GlcNAc(b1-4)GlcNAc
# In short: as §1
# [11] = biological target: Gal(b1-4)GlcNAc(b1-3)Gal(b1-4)GlcNAc(b1-3)Gal(b1-4)GlcNAc(b1-2)Man(a1-3)[Gal(b1-4)GlcNAc(b1-3)Gal(b1-4)GlcNAc(b1-3)Gal(b1-4)GlcNAc(b1-2)Man(a1-6)]Man(b1-4)GlcNAc(b1-4)[Fuc(a1-6)]GlcNAc
# In short: as §1
# [12] = biological target: Gal(b1-4)GlcNAc(b1-3)Gal(b1-4)GlcNAc(b1-3)Gal(b1-4)GlcNAc(b1-2)[Gal(b1-4)GlcNAc(b1-3)Gal(b1-4)GlcNAc(b1-3)Gal(b1-4)GlcNAc(b1-6)]Man(a1-6)[Gal(b1-4)GlcNAc(b1-3)Gal(b1-4)GlcNAc(b1-3)Gal(b1-4)GlcNAc(b1-2)Man(a1-3)]Man(b1-4)GlcNAc(b1-4)[Fuc(a1-6)]GlcNAc
# In short: as §1
# [13] = biological target: Gal(b1-4)GlcNAc(b1-3)Gal(b1-4)GlcNAc(b1-3)Gal(b1-4)GlcNAc(b1-3)Gal(b1-4)GlcNAc(b1-2)Man(a1-3)[Gal(b1-4)GlcNAc(b1-3)Gal(b1-4)GlcNAc(b1-3)Gal(b1-4)GlcNAc(b1-3)Gal(b1-4)GlcNAc(b1-2)Man(a1-6)]Man(b1-4)GlcNAc(b1-4)GlcNAc
# In short: as §1
# [14] = biological target: Gal(b1-4)GlcNAc(b1-3)Gal(b1-4)GlcNAc(b1-3)Gal(b1-4)GlcNAc(b1-3)Gal(b1-4)GlcNAc(b1-2)Man(a1-3)[Gal(b1-4)GlcNAc(b1-3)Gal(b1-4)GlcNAc(b1-3)Gal(b1-4)GlcNAc(b1-3)Gal(b1-4)GlcNAc(b1-2)Man(a1-6)]Man(b1-4)GlcNAc(b1-4)[Fuc(a1-6)]GlcNAc
# In short: as §1
# [15] = biological target: Gal(b1-4)GlcNAc(b1-3)Gal(b1-4)GlcNAc(b1-3)Gal(b1-4)GlcNAc(b1-3)Gal(b1-4)GlcNAc(b1-2)[Gal(b1-4)GlcNAc(b1-3)Gal(b1-4)GlcNAc(b1-3)Gal(b1-4)GlcNAc(b1-3)Gal(b1-4)GlcNAc(b1-6)]Man(a1-6)[Gal(b1-4)GlcNAc(b1-3)Gal(b1-4)GlcNAc(b1-3)Gal(b1-4)GlcNAc(b1-3)Gal(b1-4)GlcNAc(b1-2)Man(a1-3)]Man(b1-4)GlcNAc(b1-4)[Fuc(a1-6)]GlcNAc
# In short: as §1
# [16] = biological target: Gal(b1-4)GlcNAc(b1-3)Gal(b1-4)GlcNAc(b1-3)Gal(b1-4)GlcNAc(b1-3)Gal(b1-4)GlcNAc(b1-3)Gal(b1-4)GlcNAc(b1-2)Man(a1-3)[Gal(b1-4)GlcNAc(b1-3)Gal(b1-4)GlcNAc(b1-3)Gal(b1-4)GlcNAc(b1-3)Gal(b1-4)GlcNAc(b1-3)Gal(b1-4)GlcNAc(b1-2)Man(a1-6)]Man(b1-4)GlcNAc(b1-4)GlcNAc
# In short: as §1
# [17] = biological target: Gal(b1-4)GlcNAc(b1-3)Gal(b1-4)GlcNAc(b1-3)Gal(b1-4)GlcNAc(b1-3)Gal(b1-4)GlcNAc(b1-3)Gal(b1-4)GlcNAc(b1-2)Man(a1-3)[Gal(b1-4)GlcNAc(b1-3)Gal(b1-4)GlcNAc(b1-3)Gal(b1-4)GlcNAc(b1-3)Gal(b1-4)GlcNAc(b1-3)Gal(b1-4)GlcNAc(b1-2)Man(a1-6)]Man(b1-4)GlcNAc(b1-4)[Fuc(a1-6)]GlcNAc
# In short: as §1
# [18] = biological target: Gal(b1-4)GlcNAc(b1-3)Gal(b1-4)GlcNAc(b1-3)Gal(b1-4)GlcNAc(b1-3)Gal(b1-4)GlcNAc(b1-3)Gal(b1-4)GlcNAc(b1-2)[Gal(b1-4)GlcNAc(b1-3)Gal(b1-4)GlcNAc(b1-3)Gal(b1-4)GlcNAc(b1-3)Gal(b1-4)GlcNAc(b1-3)Gal(b1-4)GlcNAc(b1-6)]Man(a1-6)[Gal(b1-4)GlcNAc(b1-3)Gal(b1-4)GlcNAc(b1-3)Gal(b1-4)GlcNAc(b1-3)Gal(b1-4)GlcNAc(b1-3)Gal(b1-4)GlcNAc(b1-2)Man(a1-3)]Man(b1-4)GlcNAc(b1-4)[Fuc(a1-6)]GlcNAc
# In short: as §1
# [19] = biological target: Gal(b1-4)GlcNAc(b1-3)Gal(b1-4)GlcNAc(b1-3)Gal(b1-4)GlcNAc(b1-3)Gal(b1-4)GlcNAc(b1-3)Gal(b1-4)GlcNAc(b1-3)Gal(b1-4)GlcNAc(b1-2)Man(a1-3)[Gal(b1-4)GlcNAc(b1-3)Gal(b1-4)GlcNAc(b1-3)Gal(b1-4)GlcNAc(b1-3)Gal(b1-4)GlcNAc(b1-3)Gal(b1-4)GlcNAc(b1-3)Gal(b1-4)GlcNAc(b1-2)Man(a1-6)]Man(b1-4)GlcNAc(b1-4)GlcNAc
# In short: as §1
# [20] = biological target: Gal(b1-4)GlcNAc(b1-3)Gal(b1-4)GlcNAc(b1-3)GalNAc
# In short: as §1
# [21] = biological target: Gal(b1-4)GlcNAc(b1-3)Gal(b1-4)GlcNAc(b1-3)[Gal(b1-4)GlcNAc(b1-3)Gal(b1-4)GlcNAc(b1-6)]GalNAc
# In short: as §1
# [22] = biological target: Gal(b1-4)GlcNAc(b1-3)Gal(b1-4)GlcNAc(b1-6)[Gal(b1-3)]GalNAc
# In short: as §1
# [23] = biological target: Gal(b1-4)GlcNAc(b1-3)Gal(b1-4)[Fuc(a1-3)]GlcNAc(b1-3)Gal(b1-4)[Fuc(a1-3)]GlcNAc
# In short: as §1
# [24] = biological target: Gal(b1-4)GlcNAc(b1-3)GalNAc
# In short: as §1
# [25] = biological target: Gal(b1-4)GlcNAc(b1-3)[Fuc(a1-3)GlcNAc(b1-6)]Gal(b1-4)Glc
# In short: as §1
# [26] = biological target: Gal(b1-4)GlcNAc(b1-3)[Gal(b1-4)GlcNAc(b1-6)]Gal(b1-4)GlcNAc
# In short: as §1
# [27] = biological target: Gal(b1-4)GlcNAc(b1-3)[Gal(b1-4)GlcNAc(b1-6)]GalNAc
# In short: as §1
# [28] = biological target: Gal(b1-4)GlcNAc(b1-3)[GlcNAc(b1-6)]Gal(b1-4)GlcNAc
# In short: as §1
# [29] = biological target: Gal(b1-4)GlcNAc(b1-6)Gal(b1-4)GlcNAc
# In short: as §1
# [30] = biological target: Gal(b1-4)GlcNAc(b1-6)Gal(b1-4)GlcNAc(b1-6)GalNAc
# In short: as §1
# [31] = biological target: Gal(b1-4)GlcNAc(b1-6)GalNAc
# In short: as §1
# [32] = biological target: Gal(b1-4)GlcNAc(b1-6)[Gal(b1-3)]GalNAc
# In short: as §1
# [33] = biological target: Gal(b1-4)GlcNAc(b1-6)[Gal(b1-3)]GlcNAc
# In short: as §1
# [34] = biological target: Gal(b1-4)GlcNAc(b1-6)[Gal(b1-4)GlcNAc(b1-3)]GalNAc
# In short: as §1
# Gal(b1-4)GlcNAc6P = biological target: Gal(b1-4)GlcNAc6P
# In short: as §1
# Gal(b1-6)Gal = biological target: Gal(b1-6)Gal
# In short: as §1
# Gal3S(b1-3)GalNAc = biological target: Gal3S(b1-3)GalNAc
# In short: as §1
# Gal3S(b1-3)GlcNAc = biological target: Gal3S(b1-3)GlcNAc
# In short: as §1
# [35] = biological target: Gal3S(b1-3)[Fuc(a1-4)]GlcNAc
# In short: as §1
# Gal3S(b1-4)Glc = biological target: Gal3S(b1-4)Glc
# In short: as §1
# Gal3S(b1-4)Glc6S = biological target: Gal3S(b1-4)Glc6S
# In short: as §1
# Gal3S(b1-4)GlcNAc = biological target: Gal3S(b1-4)GlcNAc
# In short: as §1
# Gal3S(b1-4)GlcNAc6S = biological target: Gal3S(b1-4)GlcNAc6S
# In short: as §1
# [36] = biological target: Gal3S(b1-4)[Fuc(a1-3)]Glc
# In short: as §1
# [37] = biological target: Gal3S(b1-4)[Fuc(a1-3)]Glc6S
# In short: as §1
binder,measurement,setting,value
B1,glycan array binding signal (z-score),[1],-0.268
same,glycan array binding signal (z-score),[2],-0.196
same,glycan array binding signal (z-score),[3],0.142
same,glycan array binding signal (z-score),[4],0.133
same,glycan array binding signal (z-score),[5],-0.04
same,glycan array binding signal (z-score),[6],-0.203
same,glycan array binding signal (z-score),[7],-0.042
same,glycan array binding signal (z-score),[8],-0.034
same,glycan array binding signal (z-score),[9],0.097
same,glycan array binding signal (z-score),[10],-0.039
same,glycan array binding signal (z-score),[11],-0.075
same,glycan array binding signal (z-score),[12],-0.082
same,glycan array binding signal (z-score),[13],-0.177
same,glycan array binding signal (z-score),[14],0.073
same,glycan array binding signal (z-score),[15],-0.172
same,glycan array binding signal (z-score),[16],-0.071
same,glycan array binding signal (z-score),[17],-0.248
same,glycan array binding signal (z-score),[18],0.023
same,glycan array binding signal (z-score),[19],0.056
same,glycan array binding signal (z-score),[20],-0.024
same,glycan array binding signal (z-score),[21],-0.215
same,glycan array binding signal (z-score),[22],-0.17
same,glycan array binding signal (z-score),[23],-0.024
same,glycan array binding signal (z-score),[24],0.085
same,glycan array binding signal (z-score),[25],-0.047
same,glycan array binding signal (z-score),[26],0.655
same,glycan array binding signal (z-score),[27],1.05
same,glycan array binding signal (z-score),[28],0.016
same,glycan array binding signal (z-score),[29],-0.191
same,glycan array binding signal (z-score),[30],0.216
same,glycan array binding signal (z-score),[31],-0.135
same,glycan array binding signal (z-score),[32],-0.202
same,glycan array binding signal (z-score),[33],0.507
same,glycan array binding signal (z-score),[34],0.048
same,glycan array binding signal (z-score),Gal(b1-4)GlcNAc6P,0.002
same,glycan array binding signal (z-score),Gal(b1-6)Gal,-0.229
same,glycan array binding signal (z-score),Gal3S(b1-3)GalNAc,-0.228
same,glycan array binding signal (z-score),Gal3S(b1-3)GlcNAc,0.796
same,glycan array binding signal (z-score),[35],-0.247
same,glycan array binding signal (z-score),Gal3S(b1-4)Glc,-0.192
same,glycan array binding signal (z-score),Gal3S(b1-4)Glc6S,-0.109
same,glycan array binding signal (z-score),Gal3S(b1-4)GlcNAc,0.3
same,glycan array binding signal (z-score),Gal3S(b1-4)GlcNAc6S,-0.039
same,glycan array binding signal (z-score),[36],-0.205
same,glycan array binding signal (z-score),[37],0.897
